The whole screen tested about 420,000 compounds, of which about 64,000 (15%) were called active. The shares of active, inactive and inconclusive entries below differ from those in the screen. The call rests on the fitted dose curve; in most records, active means well fitted inhibition curve with a large enough effect; inconclusive means small, poorly fitted or top-dose-only effect; inactive means flat fitted curve, though single readings scatter. Potencies of inconclusive entries are left out as doubtful fits.
Experiment: qHTS for Inhibitors of human tyrosyl-DNA phosphodiesterase 1 (TDP1): qHTS in cells in absence of CPT; further: nearly all actives have a fitted effect of over 55% in size
Conditions: DT40 Tdp1-/- hTDP1 cells, no CPT, ATP luminescence, 48 h; activity change, negative = growth inhibition: at 46.2 µM (top of the series) unless noted
Procedure, shortened: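 Compound effects on proliferation are scored in DT40 Tdp1-/-;hTDP1 cells in the absence of CPT. ATP levels (CellTiter-Glo luminescence) are recorded after a ≥48 hr, 37 °C incubation.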
On the % scale 0 is the no-effect control and ±100 the full control effect; potency means the concentration at half of the fitted maximal effect; tags describe the fitted curve by direction and shape.

Compound | Potency | activity change, negative = growth inhibition
COc1ccc(NC(=O)C2CCC(CNS(=O)(=O)c3ccc(Br)s3)CC2)c(OC)c1 (stereo unspecified) | inconclusive [inhibitor, single point] | –
COc1ccc(CCNC(=O)C(=O)c2c[nH]c3ccccc23)cc1OC | – | inconclusive: -38% [inhibitor]
Cc1ccnc(SCC(=O)c2ccc([N+](=O)[O-])cc2)n1 | – | inactive: -9.81%
Cc1ccc(NC(=O)CCn2c(=O)oc3ccccc32)c(C)c1 | – | inactive: -12%
O=C1NCC(Nc2ccc(Br)cc2)C(=O)N1 (stereo unspecified) | – | inactive: -9.34%
CC(C)CC(C(=O)NCC1CCN(Cc2ccc(F)cc2)CC1)N1Cc2ccccc2C1=O (stereo unspecified) | active: 20.6 µM | –
C#CCn1c(=NC(=O)CN2C(=O)CCC2=O)sc2cccc(OC)c21 | inconclusive [inhibitor, single point] | –
O=C(CCN1C(=O)C2C3C=CC(C4CC34)C2C1=O)Nc1ccc(Cl)cc1O (stereo unspecified) | inconclusive [inhibitor, single point] | –
CCc1ccc(NC(=O)Cn2cc(S(=O)(=O)c3ccc(F)cc3)c(=O)c3cc(OC)ccc32)cc1 | inconclusive [inhibitor, single point] | –
COc1ccc(-n2ccnc2SCC(=O)NCc2ccco2)c(OC)c1 | – | inactive: -24.6%
CC(C)=CCC/C(C)=C/CNC(=O)CC1C[C@H](C(=O)N2CCOCC2)[C@@]2(C)c3[nH]c4ccccc4c3CCN2C1=O (stereo partly specified) | active: 11.6 µM | –
Cc1ccccc1-n1ncc2c1CC(C)(C)CC2NC(=O)C1=CC(=O)CC(C)(C)O1 (stereo unspecified) | inconclusive [inhibitor, single point] | –
CCCOc1ccc(CNC(=O)c2ccc3c(c2)N(CC)CCS3)cc1 | inconclusive [inhibitor, single point] | –
O=C(O)c1ccc2c(c1)N(Cc1ccccc1)C(=O)c1ccccc1S2=O (stereo unspecified) | – | inactive: -16.7%
Cc1cc(C(=O)Nc2ccc(Cl)cc2)n(-c2ccccc2)n1 | – | inactive: 3.65%
CCn1cc(CN2CCC(Oc3ccc(C(=O)N4CCCCC4)cc3)CC2)cn1 | – | inactive: -10%
CC(=O)c1ccc(-c2cccc(-c3cc(=O)oc4ccc(C(C)(C)C)cc34)c2)cc1 | inconclusive [inhibitor, single point] | –
CCOc1nc(Nc2ccc(OC)c(Cl)c2)nc(N2CCN(c3ccc(OC)cc3)CC2)n1 | active: 23.1 µM | –
Nc1c(S(=O)(=O)c2cccs2)c2nc3ccccc3nc2n1Cc1ccc2c(c1)OCO2 | inconclusive [inhibitor, single point] | –
COc1ccc(-c2[nH]ncc2CN2CCCC(C(=O)c3ccc(OC)cc3OC)C2)cc1 (stereo unspecified) | inconclusive [inhibitor, single point] | –
O=S(=O)(c1ccc2c(c1)CCCN2)N1CCCCC1 | – | inactive: -26.2%
CCOC(=O)C1(Cc2ccc(O)cc2)NC(c2ccco2)C2C(=O)N(c3ccccc3F)C(=O)C21 (stereo unspecified) | – | inactive: -0.324%
CC(=O)Nc1ccc(-c2csc(NNC(=O)c3ccc(C)cc3)n2)cc1 | active: 10.3 µM | –

Compound | Potency | activity change, negative = growth inhibition
CC(=O)N1CCc2cc(S(=O)(=O)N3CCc4ccccc4C3)ccc21 | inconclusive [inhibitor, partial curve] | –
CC(C)N1C(=O)c2ccccc2NC(=O)C1C(=O)NCc1cccc(C(F)(F)F)c1 (stereo unspecified) | inconclusive [inhibitor, single point] | –
S=c1[nH]nc(-c2ccc3ccccc3n2)n1-c1ccc2ncccc2c1 | – | inactive: -18.2%
Cc1nc(/N=C(\N)N(C)C)[nH]c(=O)c1C | – | inactive: 2.29%
O=C(NCc1nc2ccccc2[nH]1)C1CCCCC1 | – | inactive: -22.4%
Cc1ccccc1C(=O)N1c2ncnn2C2(CCCCC2)[C@@H]2CCCC[C@@H]21 | inconclusive [inhibitor, single point] | –
CC(C)Nc1nc(NCCO)nc2ccccc12 | inconclusive [inhibitor, single point] | –
O=C1Cc2ccccc2C(c2ccc(Br)cc2)N1 (stereo unspecified) | inconclusive [inhibitor, partial curve] | –
COc1ccc(-n2nnnc2SCc2nc(N)nc(N3CCOCC3)n2)cc1 | inconclusive [inhibitor, single point] | –
O=C(CSc1nc(-c2ccccc2)nc2cc(=O)[nH]n12)Nc1ccccc1 | – | inactive: -11.5%
C/C(=N\NC(=O)c1cnccn1)c1ccc([N+](=O)[O-])cc1 | – | inactive: -3.24%
CC1CCCCN1C(=O)Cn1c(=O)oc2ccccc21 (stereo unspecified) | inconclusive [inhibitor, single point] | –
CC(C)Nc1nc2c(-c3cccc(Br)c3)nnn2c2ccccc12 | inconclusive [inhibitor, partial curve, poor fit] | –
COC(=O)C1=C(C)N(C(C)C)C(=O)C1(NC(=O)c1ccc(C(C)(C)C)cc1)C(F)(F)F (stereo unspecified) | inconclusive [inhibitor, single point] | –
N#Cc1ccc(N2Cc3ccccc3/C2=N/C(=O)Nc2ccc(Cl)cc2)cc1 | inconclusive [inhibitor, single point] | –
CCn1cc(C(=O)N2CCN(c3cc(Cl)ccc3C)CC2)c(=O)c2cc(S(=O)(=O)N3CCCCC3)ccc21 | inconclusive [inhibitor, full curve] | –
COc1cc2cc(CCCOC(=O)c3ccc(F)cc3)oc(=O)c2cc1OC | – | inactive: -8.28%
CN1C(=O)c2ccc(NC(=O)C3CCCCC3)cc2C1=O | – | inactive: 3.08%
Cc1cccc(C(=O)Nc2nnc(COc3ccccc3)s2)c1 | inconclusive [inhibitor, single point] | –
C/C(=N\OCC(=O)N/N=C/c1ccc(C)cc1O)c1cccs1 | active: 4.11 µM | –
COC(=O)[C@@]12C[C@@H](CC(=O)N3CCC(c4ccccc4)CC3)C(=O)N(CCc3ccc(OC)c(OC)c3)C1=CCC(C)(C)C2 | inconclusive [inhibitor, single point] | –
Cc1ccc(S(=O)(=O)CCC(=O)OCC(=O)Nc2cc(S(=O)(=O)N3CCOCC3)ccc2C)cc1 | inconclusive [inhibitor, single point] | –
CC1CCCCC1NC(=O)c1cncc(Br)c1 (stereo unspecified) | inconclusive [inhibitor, single point] | –

— PubChem BioAssay AID686978 (National Center for Advancing Translational Sciences (NCATS), 2013)
